Measured values reported in the supplement of paper PMC9446081.
Screen size: about 39,000 compounds; about 220 (0.56%) showed activity. The list shows a part of the results.

Test system: Escherichia coli K-12 BW25113
Assay: relative growth (OD600 normalised to plate interquartile mean) (fraction); higher = less growth inhibition, active = 0.2 or less
Conditions: 50 µM; LB; incubation time: overnight (16-24 h)
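Also: static incubation at 37 °C against the wild-type strain, values averaged over two biological replicates.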

Row | Structure (SMILES) | relative growth
1 | Cc1noc(C)c1NC(=O)Nc1ccc2c(c1)C(=O)N([C@H](C)CO)C[C@@H](C)[C@@H](CN(C)CC1CCCCC1)OCCCC[C@H](C)O2 | inactive: 0.992
2 | CCS(=O)(=O)N[C@@H]1C=C[C@H](CC(=O)NCc2ccc(Cl)cc2)O[C@H]1CO | inactive: 0.998
3 | CC[C@@H]1/C=C(\C)C[C@H](C)C[C@H](OC)[C@H]2O[C@@](O)(C(=O)C(=O)N3CCCC[C@H]3C(=O)O[C@H](/C(C)=C/[C@@H]3CC[C@H](Cl)[C@H](OC)C3)[C@H](C)[C@@H](O)CC1=O)[C@H](C)C[C@@H]2OC | inactive: 1.12
4 | C[C@@H]1CCCCO[C@H](CN(C)CC2CC2)[C@H](C)CN([C@@H](C)CO)C(=O)c2cc(NC(=O)Nc3cccc4ccccc34)ccc2O1 | inactive: 0.98
5 | C[C@H]1CN([C@@H](C)CO)C(=O)c2cc(NC(=O)Nc3ccc4c(c3)OCO4)ccc2O[C@H]1CN(C)Cc1ccc(C(F)(F)F)cc1 | inactive: 0.953
6 | CN1C(=O)c2cc(NC(=O)c3ccc(F)c(F)c3)ccc2OC[C@H]2O[C@H](CC(=O)N3CCOCC3)CC[C@H]21 | inactive: 1
7 | O=C(O)[C@@H]1[O][Sb]2([OH])([O][Sb]34([OH])[O][C@H]([C@H](O)CO)[C@H]([O]3)[C@H](C(=O)O)[O]4)[O][C@H]([C@H](O)CO)[C@@H]1[O]2 | inactive: 0.951
8 | C[C@@H]1CN([C@H](C)CO)C(=O)c2cc(NC(=O)NC3CCCCC3)ccc2O[C@H]1CN(C)S(C)(=O)=O | inactive: 1.03
9 | CC1(C)CNCC(=O)NC1 | inactive: 0.966
10 | Cc1ccc(-c2ccc3c(c2)O[C@H](CN(C)Cc2cncnc2)[C@H](C)CN([C@H](C)CO)S3(=O)=O)cc1 | inactive: 1.02
11 | COc1ccc(CN(C)C[C@H]2OCCCC[C@H](C)Oc3ccc(NC(=O)Nc4c(C)noc4C)cc3C(=O)N([C@H](C)CO)C[C@@H]2C)cc1 | inactive: 1.01
12 | OCC(O)C(O)C(O)C(O)CO (stereo unspecified) | inactive: 1.07
13 | Cc1ccc(S(=O)(=O)N(C)C[C@@H]2Oc3ncc(C#Cc4ccccc4)cc3C(=O)N([C@H](C)CO)C[C@@H]2C)cc1 | inactive: 1.04
14 | COc1ccc(S(=O)(=O)Nc2ccc3c(c2)C(=O)N([C@H](C)CO)C[C@H](C)[C@@H](CN(C)S(=O)(=O)c2cccs2)O3)cc1 | inactive: 0.994
15 | CCCCN1CC=C[C@@]23O[C@@H]4C=CCOC(=O)[C@@H]4[C@H]2C(=O)N([C@@H](C)CO)[C@@H]3C1=O | inactive: 1.04
16 | C[C@H]1CN([C@@H](C)CO)C(=O)Cc2cc(NC(=O)Cc3cn(C)c4ccccc34)ccc2O[C@H]1CN(C)S(C)(=O)=O | inactive: 0.983
17 | Cc1ccn2c(=O)c(C(=O)O)cnc2c1 | inactive: 0.966
18 | C[C@H]1CCCCO[C@@H](CN(C)S(C)(=O)=O)[C@@H](C)CN([C@@H](C)CO)C(=O)c2cc(N(C)C)ccc2O1 | inactive: 1.01
19 | C[C@@H]1CCCCO[C@H](CN(C)C(=O)Nc2ccc3c(c2)OCO3)[C@H](C)CN([C@@H](C)CO)C(=O)c2cc(NC(=O)Nc3ccc4c(c3)OCO4)ccc2O1 | inactive: 1.02
20 | Cc1ccc(S[C@]2(C(=O)NCc3ccccc3)CC(=O)N(Cc3ccccc3C(F)(F)F)[C@@H]2c2ccc(CO)cc2I)cc1 | inactive: 0.989
21 | Cc1noc(C)c1S(=O)(=O)N(C)C[C@H]1Oc2ccc(NC(=O)Cn3cnnn3)cc2CC(=O)N([C@H](C)CO)C[C@H]1C | inactive: 0.997

Row | Structure (SMILES) | relative growth
22 | CC(C)=CCCC(C)(O)C1CC=C(C)CC1 (stereo unspecified) | inactive: 1.02
23 | C[C@H]1CN([C@@H](C)CO)C(=O)c2cccc(NC(=O)Nc3ccc(F)cc3)c2O[C@@H]1CN(C)Cc1ccc(C(F)(F)F)cc1 | inactive: 0.841
24 | COc1ccc(S(=O)(=O)N(C)C[C@@H]2Oc3ccc(NC(=O)C4CC4)cc3CC(=O)N([C@H](C)CO)C[C@H]2C)cc1 | inactive: 1.01
25 | Cc1noc(C)c1NC(=O)Nc1ccc2c(c1)C(=O)N([C@@H](C)CO)C[C@H](C)[C@H](CN(C)S(=O)(=O)c1ccccc1)O2 | inactive: 0.983
26 | C[C@@H]1CN([C@H](C)CO)C(=O)Cc2cc(NC(=O)CCN3CCOCC3)ccc2O[C@@H]1CN(C)CC1CC1 | inactive: 0.964
27 | C[C@H](CO)N1C[C@H](C)[C@H](CN(C)C(=O)CN2CCOCC2)Oc2ncc(C#C[C@@H](C)O)cc2C1=O | inactive: 0.993
28 | O=C(O)[C@H](Cc1ccc(Nc2nccc3ccncc23)cc1)NC1=C(Br)C(=O)C12CCCCC2 | inactive: 1.05
29 | CC1CC2C(C(O)CC3(C)C2CCC3(O)C(=O)CO)C2(C)C=CC(=O)C=C12 (stereo unspecified) | inactive: 1.18
30 | COCC(=O)Nc1ccc2c(c1)C(=O)N(C)C[C@@H](OC)[C@H](C)CN(Cc1ccccc1C(=O)O)[C@H](C)CO2 | inactive: 1.02
31 | Cc1noc(C)c1S(=O)(=O)Nc1ccc2c(c1)C(=O)N([C@@H](C)CO)C[C@H](C)[C@H](CN(C)C)OCCCC[C@H](C)O2 | inactive: 1.03
32 | C[C@H](CO)N1C[C@H](C)[C@H](CN(C)S(=O)(=O)c2cn(C)cn2)Oc2c(NC(=O)Nc3ccccc3)cccc2C1=O | inactive: 0.983
33 | C[C@@H]1CN([C@@H](C)CO)C(=O)c2cc(NS(=O)(=O)c3cn(C)cn3)ccc2O[C@@H](C)CCCCO[C@H]1CN(C)C(=O)Nc1cccc2ccccc12 | inactive: 0.971
34 | CC(C)c1ccc(/C=C2\CSc3ccccc3C2=O)cc1 | inactive: 1.01
35 | COCC(=O)N1C[C@H](C)[C@H](OC)CN(C)C(=O)c2cc(NC(=O)Nc3cccc(F)c3)ccc2OC[C@@H]1C | inactive: 0.971
36 | C[C@@H](O)COC[C@H]1O[C@@H]2O[C@H]3[C@H](O)[C@@H](O)[C@@H](O[C@H]4[C@H](O)[C@@H](O)[C@@H](O[C@H]5[C@H](O)[C@@H](O)[C@@H](O[C@H]6[C@H](O)[C@@H](O)[C@@H](O[C@H]7[C@H](O)[C@@H](O)[C@@H](O[C@H]8[C@H](O)[C@@H](O)[C@@H](O[C@H]1[C@H](O)[C@H]2O)O[C@@H]8COC[C@@H](C)O)O[C@@H]7COC[C@@H](C)O)O[C@@H]6COC[C@@H](C)O)O[C@@H]5COC[C@@H](C)O)O[C@@H]4COC[C@@H](C)O)O[C@@H]3COC[C@@H](C)O | inactive: 1.04
37 | C[C@@H]1CCCCO[C@@H](CN(C)CC2CC2)[C@H](C)CN([C@H](C)CO)C(=O)c2cc(NC(=O)Cc3ccccc3)ccc2O1 | inactive: 0.996
38 | CSc1ncccc1C(N)=O | inactive: 1.01
39 | Nc1ccc([C@@H](O)[C@@H](O)CO)cc1 | inactive: 0.984
40 | O=C(O)C12CC(C1)C2 | inactive: 1
41 | CC1=CC2C(C(C)C)CCC(C)(O)C2CC1 (stereo unspecified) | inactive: 0.758
42 | NC(=S)c1cnccn1 | inactive: 0.99

Row | Structure (SMILES) | relative growth
43 | COc1ccc(S(=O)(=O)Nc2ccc3c(c2)C(=O)N([C@@H](C)CO)C[C@@H](C)[C@@H](CN(C)C(=O)Nc2ccc4c(c2)OCO4)OCCCC[C@@H](C)O3)cc1 | inactive: 0.997
44 | Br.Cc1ccc(Sc2ccccc2N2CCNCC2)c(C)c1 | inactive: 0.963
45 | COCC(=O)Nc1ccc2c(c1)OC[C@@H](C)N(C(=O)Cc1cccnc1)C[C@@H](C)[C@@H](OC)CN(C)C2=O | inactive: 0.969
46 | Cc1noc(C)c1NC(=O)N(C)C[C@H]1OCCCC[C@H](C)Oc2ccc(NC(=O)c3ccccc3)cc2C(=O)N([C@@H](C)CO)C[C@H]1C | inactive: 0.98
47 | Cc1ccc(S(=O)(=O)Nc2ccc3c(c2)CC(=O)N([C@H](C)CO)C[C@H](C)[C@H](CN(C)S(=O)(=O)c2cccs2)O3)cc1 | inactive: 1.01
48 | C[C@@H]1CCCCO[C@@H](CN(C)Cc2ccncc2)[C@H](C)CN([C@H](C)CO)C(=O)c2cc(NC(=O)Nc3ccccc3)ccc2O1 | inactive: 1.01
49 | Cc1cc(C)c(/N=c2\scc(C)n2Cc2ccccc2)c(C)c1 | inactive: 1
50 | C[C@H](CO)N1C[C@H](C)[C@@H](CN(C)Cc2cccc(C(=O)Nc3ccccc3N)c2)OCc2ccccc2-c2c(n(C)c3ccccc23)C1=O | inactive: 0.996
51 | O[C@@H]1[C@@H](O)[C@H]2OC[C@@H](O2)[C@H]1O | inactive: 0.993
52 | Cc1o[nH]c(=O)c1CC[C@@H](N)C(=O)O | inactive: 0.992
53 | Cc1ccc(S(=O)(=O)N(C)C[C@H]2OCCCC[C@@H](C)Oc3ccc(NC(=O)Nc4c(C)noc4C)cc3C(=O)N([C@@H](C)CO)C[C@@H]2C)cc1 | inactive: 0.961
54 | Cc1noc(C)c1NC(=O)N(C)C[C@H]1Oc2c(NS(C)(=O)=O)cccc2C(=O)N([C@H](C)CO)C[C@@H]1C | inactive: 1.01
55 | C[C@H]1CCCCO[C@H](CN(C)C(=O)Nc2ccc(F)cc2)[C@@H](C)CN([C@@H](C)CO)C(=O)c2cc(NS(=O)(=O)c3ccc(Cl)cc3)ccc2O1 | inactive: 0.987
56 | C#CCCCCCCCCCCCC(O)CC(O)CO.C=CCCCCCCCCCCCC(O)CC(O)CO (stereo unspecified) | inactive: 0.979
57 | O=C(C[C@H]1C[C@H]2c3cc(NS(=O)(=O)c4ccc(F)cc4)ccc3O[C@H]2[C@H](CO)O1)NCc1ccccc1 | inactive: 0.995
58 | C[C@@H]1CCCCO[C@H](CN(C)C(=O)NC2CCCCC2)[C@H](C)CN([C@H](C)CO)C(=O)c2cc(NC(=O)CCC(F)(F)F)ccc2O1 | inactive: 1.02
59 | C[C@@H]1CN([C@H](C)CO)C(=O)Cc2cc(NC(=O)CCC(F)(F)F)ccc2O[C@H]1CN(C)Cc1ccc(Oc2ccccc2)cc1 | inactive: 0.99
60 | O=C(O)/C=C/C(=O)NCc1ccccc1 | inactive: 1.02
61 | c1ncc(CC2CCNCC2)[nH]1 | inactive: 0.985
